Assay results taken from the supplement of paper PMC4967469.
pIC50: −log10 of the molar value. By IC50 is meant the dose at which the fit gives 50% viability; a fit beyond the top or the lowest dose is shown as a bound at that dose. AUC sums up the same curve from the lowest dose to the 256-fold higher top dose; values near 1 show little effect. For some of these results: A top dose marked as inferred comes from the curve model; the source does not state it. For some of these results: Where an entry number is given, a second screen of the drug exists; the two often differ.

These cell lines were tested with Cc1cccc(-c2[nH]c(C(C)(C)C)nc2-c2ccc3c(c2)OCO3)n1 [SB-505124] (assay: Viability of human cancer cell lines after 72 h of drug (GDSC screen)). Conditions: top dose 10 µM; top dose inferred.
Description: (§1)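 Human cancer cell lines in 384-well plates, medium with 10% serum, drug for 72 h over a 256-fold dose range (nine 2-fold or five 4-fold steps up to the top dose). Adherent lines were fixed and stained with the nucleic acid dye Syto60, suspension lines read with resazurin; signal relative to control wells, capped at 0 and 100%. One two-parameter sigmoid per drug and line, fitted in a mixed model over all curves with the slope shared within a line.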

Cell Line | AUC | pIC50
KYSE-270 (oesophagus, adherent) | 0.981 | < 5.00

These cell lines were tested with COc1cc2c(NC3CCN(C(C)C)CC3)nc(C3CCCCC3)nc2cc1OCCCN1CCCC1 [UNC0638] in the same assay as above. Conditions: top dose 20 µM; screen: GDSC drug entry 1236; top dose inferred.
Description: as §1

Cell Line | AUC | pIC50
KYSE-270 (oesophagus, adherent) | 0.809 | 5.07

Same assay, conditions: top dose 40 µM; screen: GDSC drug entry 245

Cell Line | AUC | pIC50
BICR31 (head and neck, adherent) | 0.969 | < 4.40
COR-L303 (small cell lung carcinoma, suspension) | 0.58 | 5.39
Caov-3 (ovary, adherent) | 0.785 | 4.82
KYSE-270 (oesophagus, adherent) | 0.806 | 4.77
SNU-175 (large intestine, suspension) | 0.782 | 4.81

What follows are cell lines tested with CCn1c(-c2nonc2N)nc2c(C#CC(C)(C)O)ncc(OC[C@H]3CCCNC3)c21 [GSK690693] in the same assay as above. Conditions: top dose 10.24 µM; top dose inferred.
Description: as §1

Cell Line | AUC | pIC50
BICR31 (head and neck, adherent) | 0.987 | < 4.99
COR-L303 (small cell lung carcinoma, suspension) | 0.828 | 5.22
COR-L311 (small cell lung carcinoma, suspension) | 0.331 | 6.68
Caov-3 (ovary, adherent) | 0.991 | < 4.99
KYSE-270 (oesophagus, adherent) | 0.977 | < 4.99
SNU-175 (large intestine, suspension) | 0.982 | < 4.99

These cell lines were tested with Oc1cccc(-c2nc(N3CCOCC3)c3oc4ncccc4c3n2)c1 [PI-103] in the same assay as above. Conditions: top dose 10.24 µM.
Description: as §1

Cell Line | AUC | pIC50
BICR31 (head and neck, adherent) | 0.862 | 5.05
COR-L303 (small cell lung carcinoma, suspension) | 0.338 | 6.64
COR-L311 (small cell lung carcinoma, suspension) | 0.205 | 7.10
Caov-3 (ovary, adherent) | 0.983 | < 4.99
SNU-175 (large intestine, suspension) | 0.937 | < 4.99

The cell lines below were run with C=CC(=O)Nc1cccc(Nc2nc(NC3CCC(N(C)C)CC3)nc3c2ncn3C(C)C)c1 [WZ3105] in the same assay as above. Conditions: top dose inferred.
Description: as §1

Cell Line | AUC | pIC50
SiHa (cervix, adherent, top dose 1.28 µM) | 0.941 | < 5.89
T47D (breast, adherent, top dose 1.28 µM) | 0.744 | 6.22
T84 (large intestine, adherent, top dose 1.28 µM) | 0.963 | < 5.89
T98G (glioma, adherent, top dose 1.28 µM) | 0.957 | < 5.89
T-24 (bladder, adherent, top dose 1.28 µM) | 0.967 | < 5.89
T-T (oesophagus, adherent, top dose 1.28 µM) | 0.786 | 6.26
TALL-1 (T-cell lymphoblastic leukaemia, suspension, top dose 1.28 µM) | 0.877 | 5.92
TC-71 (Ewing sarcoma, adherent, top dose 1.28 µM) | 0.672 | 6.66
TCCSUP (bladder, adherent, top dose 1.28 µM) | 0.982 | < 5.89
TE-1 (oesophagus, adherent, top dose 1.28 µM) | 0.934 | < 5.89
TE-4 (oesophagus, adherent, top dose 1.28 µM) | 0.913 | < 5.89
TE-5 (oesophagus, adherent, top dose 1.28 µM) | 0.925 | < 5.89
TE-6 (oesophagus, adherent, top dose 1.28 µM) | 0.957 | < 5.89
TE-8 (oesophagus, adherent, top dose 1.28 µM) | 0.958 | < 5.89
TE-9 (oesophagus, adherent, top dose 1.28 µM) | 0.987 | < 5.89
TE-10 (oesophagus, adherent, top dose 1.28 µM) | 0.834 | 6.09
TE-11 (oesophagus, adherent, top dose 1.28 µM) | 0.954 | < 5.89
TE-12 (oesophagus, suspension, top dose 1.28 µM) | 0.864 | < 5.89
TE-15 (oesophagus, suspension, top dose 1.28 µM) | 0.761 | 6.29
TE-441-T (rhabdomyosarcoma, adherent, top dose 1.28 µM) | 0.579 | 6.88
TGBC1TKB (biliary tract, adherent, top dose 1.28 µM) | 0.975 | < 5.89
TGBC11TKB (stomach, adherent, top dose 1.28 µM) | 0.968 | < 5.89
TGBC24TKB (biliary tract, adherent, top dose 1.28 µM) | 0.911 | < 5.89
TGW (neuroblastoma, adherent, top dose 1.28 µM) | 0.992 | < 5.89
THP-1 (acute myeloid leukaemia, suspension, top dose 1.28 µM) | 0.695 | 6.58
TK10 (kidney, adherent, top dose 1.28 µM) | 0.92 | < 5.89
